Results are given in words; binding and its absence hold for the method and conditions named. Some results given as binding are weak or reduced against the parent protein; the word gives no strength.

By UniProt entry, the sequences of proteins in these tests, tags left out. Where a name states a change or a piece, a line headed by the entry shows the natural chain unless it says otherwise. Residues count along the entry.
UniProt P18084, residues 743-774: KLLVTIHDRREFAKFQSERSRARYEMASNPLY

This test has as its target T1, PAK4 catalytic domain D440N,S474E, the kinase part of the chimeric integrin β5^743–774-linker-PAK4cat^D440N,S474E (human) (UniProt O96013).
T1 sequence: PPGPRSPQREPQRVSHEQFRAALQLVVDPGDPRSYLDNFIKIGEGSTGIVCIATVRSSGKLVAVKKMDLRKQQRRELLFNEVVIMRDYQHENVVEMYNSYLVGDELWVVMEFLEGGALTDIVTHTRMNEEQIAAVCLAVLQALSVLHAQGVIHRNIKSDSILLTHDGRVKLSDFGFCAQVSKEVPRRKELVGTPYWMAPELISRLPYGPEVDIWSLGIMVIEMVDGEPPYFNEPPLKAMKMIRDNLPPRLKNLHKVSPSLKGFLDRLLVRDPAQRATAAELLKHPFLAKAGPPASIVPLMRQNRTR
The test is described as follows: crystal structure; chimeric integrin β5 743–774-linker-PAK4cat proteins (one chain), with 1 mM AMP-PNP and 5 mM MgCl2; built in cis, a trans complex is possible; both purified.

Consider “integrin β5 tail residues 743–774, the integrin part of the chimeric integrin β5^743–774-linker-PAK4cat proteins (from UniProt P18084 743-774) (domain or fragment)”, for which the binding result is “binds”.
